Measured values as given in PubChem BioAssay AID485281 (National Center for Advancing Translational Sciences (NCATS), 2010).
Among all 350,000 compounds or so, about 260 (0.074%) were called active. This list was built around the results that the source calls inconclusive (neither active nor inactive); the mix of calls is not that of the screen. The call rests on the fitted dose curve; in most records, active means well fitted inhibition curve with a large enough effect; inconclusive means small, poorly fitted or top-dose-only effect; inactive means no such curve, though single readings can be large or run the other way. Potencies beside an inconclusive call are fits to weak or partial responses and may not hold up.

Biological target: Ferritin light chain (Equus caballus) (UniProt P02791)
Chain of UniProt P02791 (P02791 whole entry, looked up): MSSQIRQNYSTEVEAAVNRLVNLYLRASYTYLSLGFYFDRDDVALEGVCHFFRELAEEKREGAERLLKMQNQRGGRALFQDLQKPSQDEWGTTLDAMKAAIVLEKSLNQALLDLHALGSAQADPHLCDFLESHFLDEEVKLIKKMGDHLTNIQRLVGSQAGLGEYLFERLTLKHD
Test: qHTS Assay for Identification of Novel General Anesthetics; further: nearly all actives have a fitted effect of over 20% in size
Settings: apoferritin/1-aminoanthracene competitive binding, fluorescence; activity change, negative = displacement: at 77.5 µM (top of the series)
How it was run: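 Horse-spleen apoferritin (10 uM) was mixed with 50% saturated 1-aminoanthracene in PBS, exposed to compounds for 10 min at room temperature, and read for fluorescence (ex 380 nm, em 535 nm). Competitive displacement was fitted with a four-parameter Hill equation.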
On the % scale 0 is the no-effect control and ±100 the full control effect; potency means the concentration at half of the fitted maximal effect; tags describe the fitted curve by direction and shape.

Potency, inconclusive:
O=C(/C=C/c1cccc(Cl)c1)OCc1cn2cc(Cl)ccc2n1 5.01 µM [inhibitor, partial curve], CCOC(=O)C1CCCN(Cc2nc3ccc([N+](=O)[O-])cc3c(=O)n2-c2ccc(OC)cc2OC)C1 (stereo not given) 15.8 µM [inhibitor, partial curve], Cc1c(Nc2nc(-c3cccc([N+](=O)[O-])c3)cs2)c(=O)n(-c2ccccc2)n1C 35.5 µM [inhibitor, partial curve], Cc1cccc(OCCC(=O)OCC(=O)N2CCc3ccccc32)c1 44.7 µM [inhibitor, partial curve, poor fit], CC(=O)Nc1cccc(NC(=O)CSc2nnc(Cc3cccn3C)n2CCc2ccccc2)c1 39.8 µM [inhibitor, partial curve], O=C(CNC(=O)c1ccccc1F)OCc1cc(=O)n2nc(C3CCCCC3)sc2n1 39.8 µM [inhibitor, single point], CCc1ccccc1NC(=O)c1cc2sccc2n1C 10 µM [inhibitor, full curve, poor fit], CC1(C)C2CCC1(C)C(NC(=O)CCN1CCCCC1)C2 (stereo not given) 28.2 µM [inhibitor, partial curve], CCOc1ccc(-c2nnc(SCC(=O)c3ccccc3)n2-c2ccccc2)cc1 7.94 µM [inhibitor, full curve, poor fit], O=C(COc1ccc(-c2ccccc2)cc1)N1CCN(C(=O)c2cccs2)CC1 28.2 µM [inhibitor, partial curve], COc1ccc2cc(CNc3ccc(OC)c(OC)c3)c(=O)n(CC(=O)Nc3ccccc3F)c2c1 0.891 µM [inhibitor, full curve], CN(C)c1nc(-c2ccoc2)nc2ccccc12 10 µM [inhibitor, partial curve], CCCCCN(C(=O)NC(=O)Nc1cccc(C)c1C)S(C)(=O)=O 28.2 µM [inhibitor, partial curve], COc1ccc(/C=N\NC(=O)c2ccccc2OC)cc1COc1c(F)c(F)c(F)c(F)c1F 3.98 µM [inhibitor, full curve], O=C(c1cccs1)N1CCCC(c2nc(-c3ccc(F)cc3)no2)C1 (stereo not given) 39.8 µM [inhibitor, single point], Cc1ccc(C(=O)NC(=S)Nc2ccccc2C(F)(F)F)cc1 31.6 µM [inhibitor, partial curve], O=C1CC(N2CCOCC2)C(=O)N1c1cccc(Cl)c1 (stereo not given) 35.5 µM [inhibitor, partial curve], Cc1ccc2c(c1)c(=O)c(C(=O)c1ccccc1)cn2Cc1ccccc1F 12.6 µM [inhibitor, partial curve], COc1ccc(N2CCN(c3ccc(N4C(=O)CC(C)C4=O)cc3[N+](=O)[O-])CC2)cc1 (stereo not given) 35.5 µM [inhibitor, single point], CCN1C(=O)c2ccccc2S(=O)c2ccc(C(=O)NCc3ccc(C)cc3)cc21 (stereo not given) 31.6 µM [inhibitor, partial curve], COc1ccc(N(CC(=O)Nc2ccc(C)cc2C)S(=O)(=O)c2ccccc2[N+](=O)[O-])c(OC)c1 2 µM [inhibitor, full curve, poor fit], COc1ccc(-c2nc(SCC(=O)c3ccc(Br)cc3)n[nH]2)cc1 7.08 µM [inhibitor, partial curve], O=S(=O)(NCCc1ccccc1)c1cccc(S(=O)(=O)N2CCOCC2)c1 25.1 µM [inhibitor, partial curve], O=C(Nc1ccc(Br)cc1)N1CCc2ccccc2C1 31.6 µM [inhibitor, partial curve], CN=c1scc(C)n1/N=C/c1ccc(O)c(O)c1O 44.7 µM [inhibitor, single point], Cc1ccc2c(=O)cc(C(=O)N(Cc3ccccc3Cl)C3CCS(=O)(=O)C3)oc2c1 (stereo not given) 31.6 µM [inhibitor, partial curve], O=C(CN(CCO)c1ccccc1)NC12CC3CC(CC(C3)C1)C2 15.8 µM [inhibitor, partial curve], O=C(COc1ccc(Cl)cc1)N1CCCCCCC1 50.1 µM [inhibitor, single point]

Activity change, negative = displacement, inactive:
O=C(NCCCN1CCOCC1)NC12CC3CC(CC(C3)C1)C2 -14.2%, CCOc1ccc(NC(=O)C2CCN(S(=O)(=O)c3c(C)noc3/C=C/c3cccs3)CC2)cc1 -3.95%, Cc1[nH]n(-c2ccc([N+](=O)[O-])cc2)c(=O)c1/C=N/N1CCOCC1 -9.09%, NC(=O)c1c(NC(=O)c2ccc(F)cc2)sc2c1CCC2 -8.56%, CCOc1ccc(NC(=S)NCc2ccc3c(c2)OCO3)cc1 -5.05%, COC(=O)c1ccc(C2C=C(c3ccc(Cl)cc3)Nc3nc4ccccc4n32)cc1 (stereo not given) -5.41%, CCOc1ccccc1-c1noc(CCCC(=O)Nc2cccc(C(F)(F)F)c2)n1 4.89%, O=C(N/N=C/c1cn(Cc2cccc(F)c2)c2ccccc12)c1cc(O)cc(O)c1 -15.7%, O=C1CC(c2ccccc2)CC(O)=C1C=Nc1ccccc1 (stereo not given) -20.5%, Cn1c(=NC(=O)COc2ccccc2)sc2cccc(F)c21 -8.03%, Cc1c(C(=O)OC2CCCC2C)[nH]c2c1C(=O)CCC2 (stereo not given) -8.3%, CCOC(=O)C(C(=O)OCC)C1N=C(N)N=C2Oc3ccccc3N21 (stereo not given) -2.34%, C=CCn1c(CCNC(=O)c2ccco2)nc2ccccc21 -2.38%, CC(=O)Nc1ccc(SCC(CC(C)C)N2CCN(CCc3ccccc3)CCC2=O)cc1 (stereo not given) -7.48%, NS(=O)(=O)c1ccc(NC(=O)Cc2cccs2)cc1 -10.5%, COc1cc(O)c(NC(C)=O)c2nonc12 -9.88%, CCOc1ccc2c(c1)c(N=Nc1cccc(C(=O)O)c1)c(O)n2C -7.21%
